In article PMC13083723 (Patterns, 2026):
Out of some 5,400 compounds screened, about 190 (3.5%) showed an effect of 50% or more. The list shows a part of the results.

The compounds below were run on Vero-E6 (assay: primary screen, phospholipidosis by LipidTOX staining; higher = more effect of the substance). Conditions: 10 µM.
Outline: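 Drug-induced phospholipidosis detected with HCS LipidTOX Red reagent in Vero-E6 cells. Compounds tested at 10 μM, with amiodarone (10 μM) as positive control and DMSO (0.1 v/v %) as vehicle.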

In order of rising result_ITMP:
1. CC[N+]1(C)CCCC(OC(=O)C(O)(c2ccccc2)c2ccccc2)C1 (stereo not drawn)  -13.2%
2. CN[C@@H]1CCc2[nH]c3ccc(C(N)=O)cc3c2C1  -6.83%
3. COc1ccc(-c2coc3cc(O)cc(O)c3c2=O)cc1  -5.25%
4. C[C@@H]1CN(Cc2ccc(F)cc2)[C@@H](C)CN1C(=O)c1cc2c(C(=O)C(=O)N(C)C)cn(C)c2cc1Cl  -5.07%
5. CC[C@@H]1C[C@H](N(Cc2cc(C(F)(F)F)cc(C(F)(F)F)c2)C(C)=O)c2cc(C(F)(F)F)ccc2N1C(=O)OC(C)C  -4.08%
6. CC(C)c1noc(N2CCC(COc3ccc(-c4ccc(S(C)(=O)=O)cc4)nc3)CC2)n1  -4.06%
7. O=S(=O)([O-])CCS  -2.99%
8. CCN(CC)CCCCC1CCN(CC(=O)N2c3ccccc3C(=O)Nc3cccnc32)CC1  -2.95%
9. Cc1ccc2c(c1)Cc1c(C(=O)NC3CCCCC3)nn(-c3ccc(Cl)cc3Cl)c1-2  -2.64%
10. O=C(O)c1ccc(S(=O)(=O)N(Cc2ccc(OC(F)(F)F)cc2)c2ncc(C(F)(F)F)cc2Cl)cc1  -2.16%
11. Cc1nccn1CCC(C(N)=O)(c1ccccc1)c1ccccc1  -2.02%
12. C[C@H](NC(=O)/C(C#N)=C/c1ccc(O)c(O)c1)c1ccccc1  -1.75%
13. COc1ccc(CC2NCCc3cc(OC)c(OC)cc32)cc1OC (stereo not drawn)  -1.72%
14. OCC(O)CN1CCN(c2ccccc2)CC1 (stereo not drawn)  -1.7%
15. NC(C(=O)O)c1cc(O)ccc1Cl (stereo not drawn)  -1.5%
16. COc1ccc(NS(=O)(=O)c2ccc(N=Nc3ccc(O)c(C(=O)O)c3)cc2)nn1  -1.47%
17. O=C(O)CNC(=O)C(CS)Cc1ccccc1 (stereo not drawn)  -1.4%
18. CCCCCCOc1cc2c(cc1N(C)c1ncc(C(=O)O)cn1)C(C)(C)CCC2(C)C  -1.31%
19. O=C1c2ccccc2C(Cc2ccncc2)(Cc2ccncc2)c2ccccc21  -1.11%
20. O=c1cc[nH]c2cc(Cl)ccc12  -1.07%
21. O=C(Nc1ccc(F)cc1)N1CCc2ccccc2C1c1ccc(C(F)(F)F)cc1 (stereo not drawn)  -0.7%
22. CC[C@H](Nc1ncnc2[nH]cnc12)c1nc2cccc(F)c2c(=O)n1-c1ccccc1  0%
23. CCS(=O)(=O)N1CCC([C@@H](C)n2c(C)c(C(=O)NCc3c(OC)cc(C)[nH]c3=O)c3ccccc32)CC1  0.19%
24. CCN1CCN(c2cc(-c3ccc(F)cc3)c3c(n2)CCCCCC3)CC1  0.59%
25. O=C(O)/C=C/c1ccc(-c2ccc(O)c(C34CC5CC(CC(C5)C3)C4)c2)cc1  0.68%
26. O=C(CCCc1ccc(-c2ccccc2F)cc1)Nc1ccc(O)cc1  1.16%
27. CC(C)CCNc1ncccc1C(=O)N1CCN(Cc2ccccc2)CC1  1.41%
28. COC[C@@H](c1ccc(C(F)(F)F)cc1)N1CCN(C2(C)CCN(C(=O)c3c(C)ncnc3C)CC2)C[C@@H]1C  2.88%
29. COC1=CC(=O)C[C@@H](C)[C@]12Oc1c(Cl)c(OC)cc(OC)c1C2=O  3.46%
30. COc1ccccc1N1CCN(CCN2C(=O)CC3(CCCC3)CC2=O)CC1  5.3%
31. COc1cccc(OCCCN)c1-c1cc(Nc2cnc(C#N)cn2)n[nH]1  5.84%
32. c1ccc2c(c1)OCC(C1=NCCN1)O2 (stereo not drawn)  6.24%
33. O=S(=O)(OC[C@H]1O[C@@](COS(=O)(=O)[O][Al]([OH])[OH])(O[C@H]2O[C@H](COS(=O)(=O)[O][Al]([OH])[OH])[C@@H](OS(=O)(=O)[O][Al]([OH])[OH])[C@H](OS(=O)(=O)[O][Al]([OH])[OH])[C@H]2OS(=O)(=O)[O][Al]([OH])[OH])[C@@H](OS(=O)(=O)[O][Al]([OH])[OH])[C@@H]1OS(=O)(=O)[O][Al]([OH])[OH])[O][Al]([OH])[OH]  6.9%
34. c1ccc(C2CNCc3ccccc32)cc1 (stereo not drawn)  11.1%
35. O=C(NC1CCNCC1)c1n[nH]cc1NC(=O)c1c(Cl)cccc1Cl  18.1%
36. CN(C)CCCC1(c2ccc(F)cc2)OCc2cc(C#N)ccc21 (stereo not drawn)  19.3%
37. Fc1ccc(-n2cc(CCCCN3CCC4(CC3)OCc3ccccc34)c3ccccc32)cc1  26.9%
38. Cc1cc(CN)cc(C)c1NC(=O)c1ccc(-c2cc(Cl)ccc2Cl)o1  36.2%
39. CNCCCOc1cc(F)c(-c2c(Cl)nc3ncnn3c2N[C@@H](C)C(F)(F)F)c(F)c1  37.5%
40. CN(C)[C@@H](CCOc1cccc2ccccc12)c1ccccc1  43.4%
41. O=S(=O)(NCCNC/C=C/c1ccc(Br)cc1)c1cccc2cnccc12  60.8%
42. CC[C@@H]1C(=O)N(C)c2cnc(Nc3ccc(C(=O)NC4CCN(C)CC4)cc3OC)nc2N1C1CCCC1  66.8%
